Several values for one entry are separate records, joined by “and”; a condition that tells them apart may be missing. Equal values may be shown once.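 Cells were grown in 96-well plates and exposed to each compound for 48 hours at five concentrations; endpoints were interpolated linearly between bracketing concentrations, or set to the highest concentration if not reached. GI50 marks 50% less growth. At the TGI there is no net growth.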 Peptide text beside a SMILES is read from it.
The compounds below were run on NCI-H322M lung (assay: NCI-60 cell line screen, 48 h).
For `COC(=O)CNCC1OC2OC(C)(C)OC2C1N=[N+]=[N-]` (centres undefined), the TGI was over 100 µM. `O=CN1N=C(c2ccc(Nc3ccnc4cc(Cl)ccc34)cc2)CC1c1ccc(Cl)cc1` (centres undefined) was tested, and the GI50 was over 100 µM and the TGI was over 100 µM. `Cc1ncc(CO)c(C=NCCCCCCN=Cc2c(CO)cnc(C)c2O)c1O` showed a TGI of over 100 µM. Compound `COC(=O)c1nc(N)nc(C(=O)OC)c1C(=O)c1ccccc1` has a TGI of over 100 µM. With `O=C(O)CCc1nc2cc3ccccc3cc2[nH]c1=O` the TGI was over 100 µM. For `CCOC(=O)C(=O)Nc1cccc(C)c1C`, the TGI was over 100 µM. `O=C1/C(=C\c2ccccc2)c2ccccc2N1/N=C\c1ccccc1` was tested, and the TGI was over 100 µM. For `COc1cccc(C(=O)N[C@@H]2[C@H](O)[C@@H](CO)O[C@H]2n2cnc3c(N)ncnc32)c1`, the TGI was over 100 µM. `O=[N+]([O-])c1ccc2[nH]c(O)c(N=NC(=S)Nc3ccccc3)c2c1` gave a TGI of 23.7 µM. Work on `O=C1Nc2ccc(Br)cc2/C1=C/C(=O)c1ccccc1` yielded a TGI of 31.1 µM. In the case of `Clc1ccc(/C=C/c2nc(Cl)c(-c3ccc(Cl)cc3)c(Cl)n2)cc1`, the TGI is reported as over 100 µM. For `CCN(CC)CCC(=O)O[C@H]1CC[C@H](CC(C)[C@H]2CC(=O)C(C)C=C(C)[C@H](OC(=O)CCN(CC)CC)C(OC)C(=O)[C@@H](C)CC(C)/C=C/C=C/C=C(C)C(OC)CC3CC[C@H](C)[C@](O)(O3)C(=O)C(=O)N3CCCCC3C(=O)O2)CC1OC` (some centres undefined), the GI50 was 2.8 µM and the TGI was > 10 µM and 5.31 µM. In the case of `CCC(=O)c1c(C(F)(F)F)n([O-])c2ccccc2[n+]1=O`, the GI50 is reported as 4.25 µM and the TGI is reported as 17.8 µM. With `COC(=O)C1=C(O)C(C(=O)OC)[C@@]2(O)[C@@H](C(=O)OC)CC[C@@H]1[C@@H]2C(=O)OC` (some centres undefined) the TGI was over 100 µM. `NNC(=S)N/N=C(/C(=O)Nc1ccc([N+](=O)[O-])cc1)c1nc2ccc([N+](=O)[O-])cc2[nH]c1=O` gave a TGI of over 100 µM. In the case of `CC/C=C/C(/C=C/C[C@]1(CC)C[C@H](CC)[C@H](CC(=O)O)OO1)CC` (some centres undefined), the TGI is reported as 15.7 µM. `COc1cc2c(Cc3cc(OCc4ccccc4)ccc3N)nccc2c(OC)c1OC` was tested, and the TGI was over 10 µM. With `Cn1ncnc1C1c2n[nH]c(=O)c3cc(F)cc(c23)NC1c1ccc(F)cc1` (centres undefined) the GI50 was over 100 µM and the TGI was over 100 µM. `OC1(c2ccc3ccccc3c2)c2c(c3ccccc3c3ccccc23)C2=NCCN21` (centres undefined) showed a TGI of 74.6 µM. In the case of `CC(C)(CN)SCc1ccccc1`, the TGI is reported as over 100 µM. For `O=c1[nH]cnc2c1ncn2CCCCO`, the TGI was over 100 µM. Compound `Cc1nc(Nc2nc3ccccc3[nH]2)[nH]c(=O)c1CCO` has a TGI of over 100 µM. Compound `Cc1cc(C)nc(NS(=O)(=O)c2ccc(NC(=O)c3cccc4c(N)c5ccccc5nc34)cc2)n1` has a TGI of over 100 µM. `c1ccc2c(CN3CCC(C4CCN(Cc5cccc6ccccc56)CC4)CC3)cccc2c1` was tested, and the TGI was 27.5 µM and 37.4 µM. `O=C(O)c1cc(=O)c2cc(C(=O)c3cccs3)c(Cl)c(Cl)c2o1` gave a TGI of over 100 µM. `CC[C@H](C)[C@H]1NC(=O)[C@@H](NC(=O)[C@@H](CC(C)C)N(C)C(=O)C2CCCN2C(=O)[C@H](C)O)[C@@H](C)OC(=O)[C@H](Cc2ccccc2)N(C)C(=O)[C@@H]2CCCN2C(=O)[C@H](CC(C)C)NC(=O)[C@@H](C)C(=O)[C@H](C(C)C)OC(=O)C[C@@H]1O` (some centres undefined) gave a TGI of 0.0481 µM. In the case of `CCCc1cc(-c2ccc(-c3cc(CCC)c(C=O)[nH]3)s2)[nH]c1C=O`, the TGI is reported as over 100 µM. `Cc1ccc(N2C(=O)C(=O)N(/N=C3\C(=O)Nc4ccccc43)C2=S)cc1` showed a TGI of over 100 µM. In the case of `O=c1[nH]nc(-c2ccccc2)c2c(-c3ccccc3)onc12`, the GI50 is reported as 4.97 µM and the TGI is reported as over 100 µM. `CC(=O)NC(CO)C(=O)NC(Cc1ccc(O)cc1)C(=O)NCC(N)=O` (stereo not drawn) (Ac-Ser-Tyr-Gly-NH2; configuration not given here) was tested, and the TGI was over 100 µM. `COC1OC(C(C)O)C2OC(C)(C)OC12` (centres undefined) was tested, and the TGI was over 100 µM. With `CCOC(=O)c1ccc(Nc2cnc3ccc(C(F)(F)F)cc3n2)cc1` the TGI was 38.7 µM. `COc1nc(C)nc2c1ncn2Cc1ccccc1` showed a TGI of over 100 µM. Compound `COc1ccccc1N1C(=O)CC(=O)N(C(=O)CCCCCCCCC(=O)N2C(=O)CC(=O)N(c3ccccc3OC)C2=S)C1=S` has a TGI of over 100 µM. With `Cc1cccc(N=C2NC(=O)C(CC(=O)Nc3ccccc3Cl)S2)c1` (centres undefined) the TGI was over 100 µM. `Cc1ccccc1NC(=O)c1cc2ccccc2cc1O` was tested, and the GI50 was 3.25 µM and the TGI was over 100 µM. For `S=C(Nc1cccc(C2(N3CCCCC3)CCCCC2)c1)Nc1cccc(C2(N3CCCCC3)CCCCC2)c1`, the TGI was over 100 µM. With `COc1ccc(C2C(Cl)C(=O)N2NC(=O)c2ccccc2O)cc1OC` (centres undefined) the TGI was over 100 µM. `CCOC(=O)/C(=N/Nc1ccc(Cl)cc1)N1C(=S)C=C(C)NN(C)C1=S` gave a TGI of over 100 µM. `O=C(Nc1ccc(S(=O)(=O)Nc2ncccn2)cc1)c1c2ccccc2nc2ccccc12` gave a TGI of over 100 µM. Compound `COC(=O)CCC1(O)C=CC(=O)C=C1` has a TGI of over 100 µM. Work on `Cc1cn2c(/C=C3/C(=O)Nc4ccccc43)c(C)nc2s1` yielded a TGI of over 100 µM. `Cc1ccc(-n2cc(-c3ccc(Cl)cc3)c3c2N=CN2NC(c4cccs4)=NC32)cc1` (centres undefined) gave a TGI of over 100 µM. `COc1cc2nc(N3CCC[C@@H](NC4=CC(=O)c5ccccc5C4=O)C3)nc(N)c2cc1OC` gave a GI50 of 1.87 µM and a TGI of 3.79 µM. `Cc1ccc(F)c2c(=O)cc(-c3ccccc3)[nH]c12` was tested, and the TGI was over 100 µM. With `O=C1NN=C(c2ccc([N+](=O)[O-])cc2)C1n1nc(-c2ccccc2)c2ccccc2c1=O` (centres undefined) the TGI was over 100 µM. For `Cc1cc(-c2ccc(C(=O)C(c3ccccc3)(c3ccccc3)c3ccccc3)[nH]2)on1`, the TGI was 45 µM.
